# Assay results taken from PMC4336329 (PLoS ONE, 2015).
# Among all 310,000 compounds or so, about 2,200 (0.71%) showed an effect of 50% or more. Effects have a minus sign here. The list shows a part of the results.
# Target: human ether-à-go-go-related gene (hERG) potassium channel (human, UniProt Q12809)
# Experiment: primary screen, population patch clamp on CHO cells stably expressing hERG
# human ether-à-go-go-related gene (hERG) potassium channel, sequence (Q12809 whole entry, looked up): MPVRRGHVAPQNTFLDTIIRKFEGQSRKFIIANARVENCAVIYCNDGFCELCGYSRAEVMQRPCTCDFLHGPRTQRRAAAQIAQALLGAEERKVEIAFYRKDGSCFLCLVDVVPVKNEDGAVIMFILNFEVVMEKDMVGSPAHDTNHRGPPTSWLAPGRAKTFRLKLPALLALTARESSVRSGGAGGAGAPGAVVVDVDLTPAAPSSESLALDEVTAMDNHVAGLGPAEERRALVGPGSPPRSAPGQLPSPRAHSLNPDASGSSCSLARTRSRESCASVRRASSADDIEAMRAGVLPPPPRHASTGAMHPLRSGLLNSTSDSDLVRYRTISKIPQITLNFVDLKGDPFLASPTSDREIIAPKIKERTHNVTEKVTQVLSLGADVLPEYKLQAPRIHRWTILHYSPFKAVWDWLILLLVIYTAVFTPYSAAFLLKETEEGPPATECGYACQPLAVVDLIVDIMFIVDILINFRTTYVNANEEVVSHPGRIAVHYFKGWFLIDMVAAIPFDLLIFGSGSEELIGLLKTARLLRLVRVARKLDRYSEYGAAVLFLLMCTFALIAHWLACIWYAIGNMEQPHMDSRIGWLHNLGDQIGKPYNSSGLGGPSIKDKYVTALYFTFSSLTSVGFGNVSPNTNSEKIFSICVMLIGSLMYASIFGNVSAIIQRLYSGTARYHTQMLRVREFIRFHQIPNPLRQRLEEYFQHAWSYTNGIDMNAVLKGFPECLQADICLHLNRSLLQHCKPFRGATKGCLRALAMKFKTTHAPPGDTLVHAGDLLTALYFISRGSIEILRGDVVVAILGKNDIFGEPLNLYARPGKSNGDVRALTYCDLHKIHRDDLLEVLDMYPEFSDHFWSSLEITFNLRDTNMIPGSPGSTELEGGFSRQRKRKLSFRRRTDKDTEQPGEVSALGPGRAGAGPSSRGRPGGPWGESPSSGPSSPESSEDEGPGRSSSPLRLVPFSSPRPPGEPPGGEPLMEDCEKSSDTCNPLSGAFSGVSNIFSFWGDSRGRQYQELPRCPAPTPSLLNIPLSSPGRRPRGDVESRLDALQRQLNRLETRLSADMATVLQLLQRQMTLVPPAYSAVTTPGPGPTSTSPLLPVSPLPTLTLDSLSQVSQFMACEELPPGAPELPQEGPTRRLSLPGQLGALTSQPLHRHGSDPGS
row,SMILES,"hERG current change (%, negative = inhibition) at 1uM"
1,Cc1cc(Nc2cccc(Cl)c2C)n2ncnc2n1,2.24%
2,O=C(c1ccoc1)N1CCCC(N2CCN(c3cccc(C(F)(F)F)c3)CC2)C1 (stereo not shown),-10.9%
3,CN(C)C(CNC(=O)c1ccc(-c2ccccc2)cc1)c1ccccc1 (stereo not shown),8.72%
4,CCOc1ccccc1Oc1cn[nH]c1-c1ccc(OCC(=O)NN)cc1O,3.99%
5,CC(=O)OCc1cc(-c2nn(C)c(=O)c3ccccc23)ccc1C,7.01%
6,Cc1ccc(CNC(=O)c2cc(COc3c(F)cccc3F)on2)s1,9.34%
7,O=c1cc(Cl)c2ccccc2n1-c1ccccc1,14.7%
8,O=[N+]([O-])c1ccc(Cl)c(CN2CCC(O)CC2)c1,4.66%
9,COc1ccc(OC)c(C(C)NC=O)c1 (stereo not shown),19.3%
10,COc1cccc(/C=C/c2ccc3cccc(O)c3n2)c1,13.2%
11,CN(C)/C=C/C(=O)c1cccc([N+](=O)[O-])c1,7.06%
12,N#C/C(=C\C=C\c1ccccc1)C(=O)Nc1ccccc1,2.27%
13,CC1=CC(C)(C)Nc2cc(C)c(C)cc21,1.25%
14,COCCOC(=O)C1=C(C)N=c2s/c(=C\c3cccs3)c(=O)n2C1c1cccs1 (stereo not shown),11.4%
15,CN1CCc2nc(SCC(=O)OC(C)(C)C)c(C#N)cc2C1,-5.58%
16,CCC(=O)NC1(C(F)(F)F)C(=O)Nc2c1c(=O)[nH]c(=O)n2Cc1ccco1 (stereo not shown),11%
17,Cc1nn(C)cc1CNCc1c(C(=O)N2CCCCC2)nc2c(C)cccn12,8.25%
18,CCOc1cccc(C(=O)Nc2ccncc2)c1,-0.234%
19,Cc1ccc2cc(/C=N/NC(=O)[C@@H]3CCCN3)c(Cl)nc2c1.Cl,10.8%
20,CCOc1ccc(NC(=O)COC(=O)CCC(=O)c2cccs2)cc1,9.54%
21,CSc1nc(N)n2nc(-c3ccc(Cl)cc3)cc2n1,9.98%
22,CCCCNC(=S)NCc1ccc2[nH]c3c(c2c1)CCCC3,10.4%
23,CCOC(=O)c1sc(CS(=O)(=O)c2ccc(Cl)cc2)nc1C,17.3%

row,SMILES,"hERG current change (%, negative = inhibition) at 1uM"
1,CCOc1cc(/C=N/NC(=O)C(C)Sc2ccccc2)ccc1O (stereo not shown),1.95%
2,CC[C@@]12C(=O)N(c3cccc(C)c3)C(=O)N1[C@H](c1ccc(OC)cc1)[C@@H]1C(=O)N(C(C)(C)C)C(=O)[C@@H]12,10.3%
3,Cc1ccc(NC2=Nc3ccccc3CS2)cc1,11.2%
4,O=C(Nc1cccnc1)c1ccc2ccccc2c1O,6.53%
5,COC(=O)c1cccnc1-n1c(=O)c2cccnc2n(Cc2cccc(C(F)(F)F)c2)c1=O,10.1%
6,COn1c(=O)c(-c2cccc(Br)c2)[n+]([O-])c2ccccc21,15.7%
7,CCOC(=O)c1[nH]c(C)c(C(=O)Nc2ccc(C)c(C)c2)c1C,12.1%
8,O=C(Nc1ccccc1)Nc1cnccn1,8.51%
9,CS(=O)(=O)N1CCN(C(=O)NC23CC4CC(CC(C4)C2)C3)CC1,5.46%
10,O=C(NCCS(=O)(=O)N1CCN(c2ccc(F)cc2)CC1)C12CC3CC(CC(C3)C1)C2,4%
11,O=C(NCc1ccc(Cl)cc1)N1CCOCC1,16.4%
12,Cn1c(C(=O)N2CCCC(C(=O)c3ccc(C(F)(F)F)cc3)C2)cc(=O)n(C)c1=O (stereo not shown),-35.7%
13,CCO.NCCc1c[nH]c2ccc(C(N)=O)cc12.O=C([O-])/C=C\C(=O)[O-],11.6%
14,CCN(CC)C(=O)CSC1=Nc2ccccc2C2=NC(Cc3c[nH]c4ccccc34)C(=O)N12 (stereo not shown),2.12%
15,CCNC(=S)Nc1cccc(Cl)c1C,7.4%
16,Cc1c(C(=O)NC2CCCc3ccccc32)cccc1[N+](=O)[O-] (stereo not shown),16.1%
17,COc1ccc(/C=C/C(=O)OCC(=O)Nc2ccc(Cl)cc2F)cc1S(=O)(=O)N1CCOCC1,10.9%
18,O=C(/C=C/c1ccccc1)NCCc1cnc[nH]1,7.74%
19,CC1=C([N+](=O)[O-])C(c2ccccc2)C2=C(N1)c1ccccc1C2=O (stereo not shown),10.1%
20,O=C(Nc1ccc(F)cc1)c1ccc(-n2cncn2)c([N+](=O)[O-])c1,2.63%
21,O=C(CCC(=O)N1CCSc2ccccc21)NCCc1ccccc1,6.96%
22,CCOc1ccccc1NC(=S)N1CCC(NC(=O)C(C)(C)C)CC1,13.6%
23,O=C(O)c1cc(S(=O)(=O)N2CCCCCC2)ccc1Cl,13.8%

row,SMILES,"hERG current change (%, negative = inhibition) at 1uM"
1,Cc1ccc(C2NNC(=O)C2NC(=O)c2ccccc2)cc1 (stereo not shown),17.3%
2,COc1cc(C(=O)Nc2ccc(Nc3ccccc3)cc2)cc(OC)c1OC,12.6%
3,COc1ccc(CN(C(=O)CN2C(=O)COc3ccccc32)C2CCCC2)c(OC)c1,1.11%
4,O=C(c1ccc2ccccc2c1)N1CCCC1,14.5%
5,COc1ccccc1C(=O)C1CCCN(C(=O)c2ccc3c(c2)OCCO3)C1 (stereo not shown),5.75%
6,Cn1nnnc1SCC(=O)Nc1ccccc1Cc1ccccc1,5.75%
7,Cc1sc2ncn(CC(=O)NCCCC(=O)N3CCC(C(N)=O)CC3)c(=O)c2c1C,19.4%
8,Cc1ccccc1NC(=O)c1ccc(Cl)c(NC(=O)c2cccnc2)c1,12.9%
9,Cc1ccccc1OCC(=O)Nc1ccc(S(=O)(=O)Nc2ccccn2)cc1,3.67%
10,COc1ccccc1CNS(=O)(=O)c1c(C)[nH]c(=O)[nH]c1=O,12.4%
11,Cc1ccccc1C(=O)NNC(=S)NC(=O)c1ccccc1,15.5%
12,CSCCC(NS(=O)(=O)c1ccc(C)cc1)C(=O)N1CCN(C(c2ccccc2)c2ccccc2)CC1 (stereo not shown),14%
13,COc1ccc(N2CCc3c(C)nc(SC)nc32)cc1,10.3%
14,COc1ccc(COC(=O)c2c(C)nn(-c3ccccc3)c2Cl)cc1,1.94%
15,CNC(=O)CCSSCCC(=O)NC,17%
16,O=C1C(Cl)=C(NCc2cccnc2)C(=O)c2ccccc21,16.8%
17,CN1CCN(c2ccc3nccnc3c2)CC1,9.48%
18,O=C(CSc1nccn1Cc1ccccc1)NCc1ccccc1,9.71%
19,O=C(NC1CSCC1OC(=O)c1ccccc1)c1ccccc1 (stereo not shown),0.285%
20,CC(/C=N/NC(=O)C(O)c1ccccc1)=C\c1ccccc1 (stereo not shown),-2.26%
21,Cc1c(N2C(=O)/C(=C/C3CC=CCC3)SC2=S)c(=O)n(-c2ccccc2)n1C (stereo not shown),6.64%
22,Cn1c(Cc2ccc3c(c2)OCO3)nnc1SCC(=O)NC1CCCC1,9.47%
23,CC(CN1CCCCC1)c1ccccc1.O=C(O)C(=O)O (stereo not shown),14.1%

row,SMILES,"hERG current change (%, negative = inhibition) at 1uM"
1,CCOc1ccc(NC(=O)CNC(=O)c2nn(-c3ccc(OC)cc3)c(=O)c3ccccc23)cc1,15.7%
2,O=C(NCCCNCc1ccccc1)c1ccc(/C=N/O)nc1,6.96%
3,CCN(CC(=O)Nc1c(F)cccc1F)C(=O)CNC(=O)c1ccc2c(c1)OCO2,-3.06%
4,Cc1cn(C(=O)C(C)N2C(=O)c3ccccc3C2=O)c(C)n1 (stereo not shown),6.51%
5,Cn1c(N)c(S(=O)(=O)NCc2ccc(Cl)cc2)c(=O)n(C)c1=O,20.9%
6,Cc1nnc(SCC(=O)N2CCOCC2)n1C,10.1%
7,COc1ccc(NC(=O)NC(C)c2ccncc2)cc1OC (stereo not shown),2.22%
8,CN(CCOc1ccccc1)C(=O)c1ccc(OC2CCN(C(=O)C3CC3)CC2)cc1,3.45%
9,CN(Cc1ccccc1)C(=O)COC(=O)c1cc(-c2ccc(Cl)s2)nc2ccccc12,-17.9%
10,O=C(Nc1ccc(CN2CCCCC2)cc1)c1cccc(Br)c1,-17.8%
11,CCOc1ccc(CCNC(=O)CSc2cc(=O)n(C)c3cc(Cl)ccc23)cc1OCC,11.6%
12,COc1ccc(C(=O)Cn2c(NCCCl)nc3ccccc32)cc1.Cl,4.71%
13,CCOc1ccc(C2CC(=O)NC(SC)=C2C#N)cc1 (stereo not shown),14.3%
14,COc1ccc(OC)c(C(=O)c2ccc(C(=O)O)cc2)c1,-4.18%
15,C[C@@H]1CC=C[C@H]2[C@H]1C(=O)N(Cc1ccccc1)[C@H]2c1ccc2ccccc2c1/C=C/c1ccccc1,12.4%
16,Cc1ccc(S(=O)(=O)NCc2ccncc2)cc1C,11.9%
17,C/C(N)=C(/C#N)C(=O)CSc1nnc(Cc2ccccc2F)n1N,9.15%
18,O=C1CSC(c2ccccc2)N1c1ccc([N+](=O)[O-])cc1 (stereo not shown),3.28%
19,Cc1ccc(NC(=O)C2CCCN(C(=O)c3ccc(Cl)cc3)C2)cc1S(=O)(=O)N1CCOCC1 (stereo not shown),2.85%
20,O=C(CSCc1ccc(Cl)cc1)Nc1ccc(-c2nnc(-c3ccccc3)o2)cc1,4.79%
21,Cc1c(C)c(C)c(C(=O)C2CCN(c3ccc([N+](=O)[O-])cn3)CC2)c(C)c1C,10.1%
22,Cc1nc2ccccc2nc1N1CCC(C)CC1,3.15%
